# Data taken from PubChem BioAssay AID445 (National Center for Advancing Translational Sciences (NCATS), 2006).
# Screen size: about 110,000 compounds; about 40 (0.04%) were called active. The shares of active, inactive and inconclusive entries below differ from those in the screen. The call rests on the fitted dose curve; in most records, active means well fitted curve in the direction sought with a large enough effect in the signal ratio (not every such curve was filed as active); inconclusive means small, poorly fitted or top-dose-only effect, or a change in a side signal; inactive means flat fitted curve, though single readings scatter; the % refers to the signal ratio. A potency beside an inconclusive call is a rough fit, not a confirmed value.
# Assay: IkB Signaling;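 on IkBa stabilization activation: 0% = basal untreated cells and 100% = reference inhibitor full response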
# Conditions: ABC-DLBCL IkBa-CBG/CBR dual luciferase ratio (green luciferase fused to IkBa over red control in OCI-Ly3 lymphoma cells), 4 h; IkBa stabilization activation: at 57.1 µM (top of the series), scaled: untreated 0%, proteasome inhibitor 100% unless noted
# Method in brief: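 In this assay, an IκBα–CBG68 fusion accumulates when IKK-driven degradation is blocked; native CBR normalizes for cell number. OCI-Ly3 cells were treated 4 h with compound and doxycycline, then green and red light read after Chroma-Glo addition.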
# Potency means the concentration at half of the fitted maximal effect.
Structure (SMILES),IkBa stabilization activation,Potency
CCN1c2ccccc2-c2nc(SCC(=O)Nc3cc(F)ccc3F)ncc2S1(=O)=O,inactive,–
CNS(=O)(=O)c1ccccc1C(=N)c1ccccc1,"inactive: 0.916% [at 11.4 µM, scaled: untreated 0%, proteasome inhibitor 100%]",–
COC(=O)[C@H]1[C@@H]2C[C@H]3c4[nH]c5ccccc5c4CCN3C[C@@H]2CC[C@@H]1O,"inactive: -0.343% [at 11.4 µM, scaled: untreated 0%, proteasome inhibitor 100%]",–
Cc1cccc(CN2C(=O)c3ccccc3Sc3ccc(C(=O)NCc4cccs4)cc32)c1,inconclusive: 1.37% [signal inhibitor],–
CCOC(=O)N1CCc2c(sc3c2c(=O)n(-c2ccc(F)cc2)c(=O)n3CC(=O)c2ccccc2)C1,inactive,–
Cc1ccc(Nc2nc(N)nc(CSc3nnnn3-c3ccccc3)n2)cc1,inactive,–
COc1ccc(-c2noc(CN(C)S(=O)(=O)c3ccc(Cl)cc3)n2)cc1OC,inconclusive: 2.69% [signal inhibitor],–
CCc1ccc(NC(=O)c2cc(C)nn2-c2ccccc2)cc1,inconclusive: 8% [signal inhibitor],–
COc1cc2oc(-c3ccccc3)cc(=O)c2cc1O,–,"inconclusive: 3.98 µM [signal activator, single point]"
CCOC(=O)c1c(NC(=O)c2cc3ccccc3c(=O)o2)sc2c1CCC(C(C)(C)C)C2 (configuration not stated),–,"inconclusive: 2.51 µM [signal inhibitor, partial curve]"
O=c1c2ccccc2nc(N2CCN(c3cccc(Cl)c3)CC2)n1-c1ccccc1,inconclusive: -1.68% [signal inhibitor],–
Cc1c(CC(C)(C)C(=O)O)n(Cc2ccc(Cl)cc2)c2ccc(F)cc12,inconclusive: 3.19% [signal inhibitor],–
COC(=O)c1cccc(CN2C(=O)SC(Nc3ccc(Cl)cc3)C2=O)c1 (configuration not stated),inconclusive: 10.3% [signal inhibitor],–
COc1ccc(Nc2c3c(nc4nncn24)CCC3)cc1Cl,inconclusive: 0.196% [signal inhibitor],–
O=C(Nc1ccccc1C(F)(F)F)N1CCC2(CC1)Oc1ccccc1C(=O)N2Cc1ccccc1F,inconclusive: 1.35% [signal inhibitor],–
CCCCOc1ccccc1NC(=O)CSc1nnnn1C(C)(C)C,inconclusive: 6.43% [signal inhibitor],–
CC(=O)Nc1ccc(NC(=O)CCc2c(C)nc3c(c(C)nn3-c3ccccc3)c2C)cc1,inactive,–
CCCCOc1ccc(C(=O)Nc2nc3c(s2)CC(C)CC3)cc1 (configuration not stated),inconclusive: 1.84% [signal inhibitor],–
COCCNC(=O)c1ccc2c(c1)N(Cc1c(F)cccc1Cl)C(=O)c1ccccc1S2,inconclusive: 2.92% [signal inhibitor],–
CCc1ccc(N2C(=O)N(CC(=O)C(C)(C)C)c3ccccc3S2(=O)=O)cc1,inconclusive: -0.468% [signal inhibitor],–
Nc1c(NCc2ccccc2)c2ccccc2oc1=O,inconclusive: 0.734% [signal inhibitor],–
COc1ccc(CCNC(=O)Cn2nc(C)c3c(C)n(-c4ccc(C)cc4)nc3c2=O)c(OC)c1,inconclusive: -0.518% [signal inhibitor],–
CC(=O)c1cc2c(cc1NC(=O)CCc1ccccc1)OCO2,–,"inconclusive: 31.6 µM [signal inhibitor, single point]"

Structure (SMILES),IkBa stabilization activation,Potency
CCn1c(=O)cc(SCC(=O)N2CCN(c3ccccc3OC)CC2)c2ccccc21,inconclusive: 1.65% [signal inhibitor],–
CCC(c1nnnn1Cc1ccco1)N(Cc1cc2cc(OC)ccc2[nH]c1=O)C1CCCCC1 (configuration not stated),inconclusive: 7.65% [signal inhibitor],–
Cc1cccc(N2CCN(C(=O)CSCc3c(C)noc3C)CC2)c1C,inactive,–
CCOc1cc(-c2c(C)c(C)nc(N)c2C#N)ccc1O,inactive,–
COc1cc(NC(=O)Cn2c(=O)nc(-c3ccccc3F)c3cc(Cl)ccc32)cc(OC)c1,inconclusive: 0.172% [signal inhibitor],–
CC1CCCCN1c1nc(-c2ccc(C(C)(C)C)cc2)nc2ccccc12 (configuration not stated),inactive,–
COC(=O)c1ccccc1NC(=O)Cn1nc(C(F)(F)F)c2c1CCCC2,inconclusive: 8.79% [signal inhibitor],–
CC(C)c1nc2ccc(C(=O)NCCCN3CCN(c4ccc(F)cc4)CC3)cc2o1,inconclusive: -1.28% [signal inhibitor],–
COc1ccc(-c2oc3ncnc(NCCN4CCOCC4)c3c2-c2ccc(OC)cc2)cc1,inactive,–
COc1cccc(-n2c(-c3ccc(C)cc3)cc3c2CC(C)(C)CC3=O)c1,inconclusive: 7.07% [signal inhibitor],–
O=C(O)[C@H]1CCc2ccc3ccccc3c2[C@H]1c1cccc2ccccc12,"inactive: -0.452% [at 11.4 µM, scaled: untreated 0%, proteasome inhibitor 100%]",–
COc1ccc(OC)c(NC(=O)CCc2c(C)nc3c(c(C)nn3C(C)(C)C)c2C)c1,inconclusive: 1.27% [signal inhibitor],–
CCCN(Cc1cc2cc(C)ccc2[nH]c1=O)S(C)(=O)=O,–,"inconclusive: 3.98 µM [signal inhibitor, full curve]"
CC(=O)c1sc(NC(=O)C2COc3ccccc3O2)nc1C (configuration not stated),–,"inconclusive: 7.94 µM [signal inhibitor, partial curve]"
O=C(c1cccc2ccccc12)N1CCN(c2ccccc2F)CC1,inconclusive: 1.75% [signal inhibitor],–
CC(C)c1ccc(-c2nnn(CCC(=O)O)n2)cc1,–,"inconclusive: 15.8 µM [signal inhibitor, partial curve]"
CCc1nnc2c(NCc3cccc(OC)c3)nc3ccccc3n12,inactive,–
Cc1ccc(N(CC(=O)Nc2cccc(C)c2)S(=O)(=O)c2cccc3nonc23)cc1,inconclusive: 17.4% [signal inhibitor],–
Cn1c(=O)c2ccccc2n(Cc2ccccc2F)c1=O,inconclusive: 0.596% [signal inhibitor],–
COc1ccc2c(C(=O)CN(C)C3CCCCC3)c[nH]c2c1,–,"inconclusive: 1.58 µM [signal inhibitor, partial curve]"
CCN(CC)S(=O)(=O)c1ccc2c(c1)c(=O)c(C(=O)NCc1ccccc1OC)cn2C,inconclusive: 4.76% [signal activator],–
Cc1ccc(C(=O)N2CCc3cc(CNC(=O)c4ccnn4C)ccc32)cc1,inconclusive: -2.61% [signal inhibitor],–
Cc1ccc(NS(=O)(=O)c2ccc3c(c2)NC(=O)CCS3)cc1F,inconclusive: 2.5% [signal inhibitor],–

Structure (SMILES),IkBa stabilization activation,Potency
O=C(NCc1ccc2c(c1)CCN2C(=O)c1ccccc1)c1ccc(Br)o1,inconclusive: 0.321% [signal inhibitor],–
Cc1ccc(-c2nc(-c3cc4cccc(OCc5cccc(F)c5)c4oc3=O)no2)cc1,inconclusive: 15% [signal inhibitor],–
CCOc1ccc(-n2c(Cc3ccccc3)nnc2SCc2nc(-c3cccs3)no2)cc1,inconclusive: 2.22% [signal inhibitor],–
O=C(Nc1ccc(Br)cc1)c1ccc(Cl)c(S(=O)(=O)N2CCCCCC2)c1,inconclusive: 7.3% [signal inhibitor],–
COc1cccc(NC(=O)c2sc3nc(C)c(C(=O)Nc4ccc(C)cc4C)c(-c4cccs4)c3c2N)c1,inconclusive: 3.34% [signal inhibitor],–
COc1cc2c(C)nc3onc(-c4ccccc4)c3c2cc1OC,inactive,–
O=C(O)[C@H](Cc1cc(I)c(O)c(I)c1)C1CCCCC1,"inactive: 0.93% [at 11.4 µM, scaled: untreated 0%, proteasome inhibitor 100%]",–
O=C1c2ccccc2C(Cc2ccncc2)(Cc2ccncc2)c2ccccc21,inactive,–
Cc1cc(C)cc(NC(=O)C2CCN(S(=O)(=O)c3c(C)noc3/C=C/c3ccco3)CC2)c1,inactive,–
CSc1nc2ccc(Nc3nc(N4CCOCC4)nc(N4CCOCC4)n3)cc2s1,inconclusive: 0.783% [signal inhibitor],–
Cc1ccn2c(Nc3c(C)cccc3C)c(-c3ccc(Cl)s3)nc2c1,inconclusive: 4.59% [signal inhibitor],–
Cc1ccc(OCc2nc(C#N)c(NCc3ccc4c(c3)OCO4)o2)cc1,inconclusive: -2.56% [signal inhibitor],–
COC(=O)CN1C(=O)C(C)(C)c2cc(S(=O)(=O)NCc3ccc(Cl)cc3)ccc21,inactive,–
CCCCN(CCCC)C1=C(C(=O)c2ccccc2)N(CC)S(=O)(=O)c2ccccc21,inconclusive: 1.91% [signal inhibitor],–
Cc1ccc2scc(N3CCN(c4cccc(C(F)(F)F)c4)CC3)c(=O)c2c1,inactive,–
O=C(Cc1ccc2c(c1)OCCO2)c1c(O)cc(O)cc1O,inconclusive: 2.23% [signal inhibitor],–
COc1ccccc1C(=O)Nc1ccc(OCc2cc(=O)n3cccc(C)c3n2)cc1,inactive,–
O=C(NCCc1c[nH]c2ccccc12)C(F)(F)C(F)F,inactive,–
Cc1cc(NC(=O)CSc2nc3c([nH]c4ccccc43)c(=O)n2-c2ccc(Cl)cc2)no1,inactive,–
Cc1cc(C)c2nc(-c3ccccn3)cc(C(=O)NCc3ccco3)c2c1,–,"inconclusive: 31.6 µM [signal inhibitor, partial curve]"
Cc1ccc(-c2nc(CSCC(=O)N3CCN(c4ccccn4)CC3)c(C)o2)cc1,inconclusive: 9.24% [signal inhibitor],–
